The other results are listed elsewhere or left out.
System: PfHDP1 homeodomain (GST-tagged)
Assay: gcPBM binding intensity (ln(normalized median fluorescence intensity)); higher = stronger DNA binding
How it was run: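 In this array assay, P. falciparum DNA-binding domains with a GST tag, expressed in E. coli, were applied for 1 h to primer-extended double-stranded 36-bp intergenic genomic probes and negative controls on an Agilent 4 × 180k array. Bound protein was visualised with Alexa488 anti-GST antibody at 488 nm. Binding intensity is the highest Masliner-normalised natural-log median intensity across replicate spots of either probe orientation.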

Sequence	gcPBM binding intensity (ln)
AAAACATAACATTGTTGTACTACTAATAAAATAAGT [XGTACX_site6149]	6.55
ATAATTTTGTATAATTGTACATTATTTTAAATAAAT [XGTACX_site7952]	6.36
TTTTTTTTTTTTTTTAAACACACGGTGTGAAAATTA [CACACA_site3818]	6.46
ATTTGATAGACACATGCACACATGCAATACTTTATT [CACACA_site5633]	9.05
TTTTCTGTGTTTACATGTACGAAAGATTAATATTAT [XGTACX_site5214]	6.7
TTATCATATCATGGAAGTACAAATAAAATATATAAC [XGTACX_site1608]	7.06
ATATGCACTTTTTGCACACGTATGAATAACAAAATA [CACACA_site1810]	11.2
GATGAATAATATGTATGTACATATGCATTATGATGT [XGTACX_site7655]	6.73
ACATATAGATAAATATGTACATATATATATATATAT [XGTACX_site1806]	9.16
AGTAGAATATCCCCTACACACCCAAGTAATTTACAA [CACACA_site6708]	7.22
AAATGTGAAAAAGAGTGTACCCGACTTGAAATTAAG [XGTACX_site8621]	6.92
TTTAATTTTCAATGGCGTACATATAAAATATTATAT [XGTACX_site1672]	6.14
AATTAAAAGTGAAGAGTGCATAGAATTTTTTACTTT [GTGCAC_site9973]	7.26
ATAATTATATTTAGTGGTACTACTTTTGATAATTAG [XGTACX_site6562]	6.19
TATAAGTGCCGTTATACACACGTTATATAAATATTA [CACACA_site4401]	6.58
TGTAATATATGTATTGCACACCTATAACCATTATTT [CACACA_site8422]	9.86
GACAATTATATGTAGGTGCATATACAAATTTTTTAA	9.14
ATAGGATATTATTCCTGTACATATATATATATATAT [XGTACX_site2108]	9.35
ATCAAAAGAAGACACACACACATACCTATAAATATA [CACACA_site7736]	6.81
AATAGTTATTCCAGGTGTACATAACATATAATTTAC [XGTACX_site1340]	6.19
TTATTATTATTACTTACGCACACTTTTTTTTTTATT [CACACA_site411]	7.55
ATATAAGTATATCTATGTACATACAATATAAATGTA [XGTACX_site2153]	6.28
TATATACATACATATTGTACTTATAAAGATTAATTT [XGTACX_site2203]	6.33

Sequence	gcPBM binding intensity (ln)
ATAAAAAATATCACATAAAATAAAAAAAGAAAGGAT [XGTACX_negctrl_site294]	7.21
ATATATAAAAATAAATGTACATATTCATATGATGAT [XGTACX_site3411]	6.46
TATATATATACAGTAGTGCATATATTTAAAATATAT [GTGCAC_site9999]	8.59
TATATATAAAAATATACACACTGTATTATTGTAATA [CACACA_site5959]	6.33
ATAACGAACACTATTACACACATACATACATATGTA [CACACA_site5092]	7.08
AAAAAAAAAAAAAACACACACACATAGACCTCCAAT [CACACA_site3563]	6.76
TTTTTTGTTACAACAGTGCAAAAAAACCTTAATGTT	8.41
ATATATATATATATATGTACATACAATTATATTCTC [XGTACX_site1133]	9.37
AAAAATCATTTAAGAACACACAAATATTTCCATTAA [CACACA_site1488]	6.12
TACATAAATTTTAATACATGCAAATAAAATATATAA [TGCATGCA_site131]	6.54
AATCTTCTTAATTGTAGTACACAATTTATAAACAAA [XGTACX_site8706]	6.64
AAAAAAAAAAAAAACACACAAACAAATGAATAAATA [CACACA_site3300]	6.54
TGTATATACATAAAGTGTACGTATATTTATATATAT [XGTACX_site4320]	6.71
TATTTTTATTTTACATTATTTGTTTATAATTCTTAA [CACACA_negctrl_site1358]	6.4
AATAAATAAATAAATATATATATATATATATATATA [CACACA_negctrl_site708]	9.33
ATATATATATATAATGCACACATTATAAATTATGTA [CACACA_site5802]	10.6
ATCTTTTATATATTCACACATAAAATTATACAGATA [CACACA_site5277]	6.7
TTTTTTTTTTATTCATGTACGTATTTAAATAATTCT [XGTACX_site2651]	6.58
GAGTTTTAATGTAATAGTACTTTAATTATTATATAT [XGTACX_site4527]	6.47
AAAACACAATTTATTACACACATATATTATAGATTA [CACACA_site6780]	6.61
GATCGCATGAAATGAACACACATAAAAAAAATATAC [CACACA_site4087]	6.76
AAAAAAAAAATATACACACACACATACCCATAAATA [CACACA_site5981]	6.91
TTATAAAAATACAGTTAACACACATGTGTATATATA [CACACA_site9257]	7.13

Sequence	gcPBM binding intensity (ln)
AAAATAATCTTATGCACACCAAAAATTTATATAATC [CACACA_site1235]	10.6
TATATATATAAGGATAGTACATATATTTATATGATT [XGTACX_site4954]	7.56
GACTACACACAAGGGTGTACATATATATTATATATA [XGTACX_site2247]	6.67
TTAACTTATTTGTAAAGTACATTAATAAAAAGAAAA [XGTACX_site1588]	6.55
AGGTTATAATTGTTTTCACACATTTAAAAATGTTAT [CACACA_site5097]	6.65
TTATATATTTCTATTGCACACTATATTTTATGAAGA [CACACA_site2910]	10.3
AAAATTATAAAATGGGCACACATGAATATTGTAGTA [CACACA_site5261]	6.56
ATGAAATTTATATCATGTACATACAAGAGAAAAAAA [XGTACX_site3326]	6.54
GTATAATAAATGATAGCACACATATGTACTTATATA [CACACA_site8188]	6.69
TTTATTTTAAATTTACGTACATAATTAATCATATTT [XGTACX_site7529]	6.41
ATAAAAAATTAGGACTGTACATAATTTTTGTGATTT [XGTACX_site2857]	6.22
ATAATACCATTAATTTGTACATATATATTATATATA [XGTACX_site4345]	6.49
ATTATATTATATATATGTACATATATATATCATAAT [XGTACX_site1]	6.51
ACAAAAAGTTACATACGTACGTAAAATTGTAATAAA [XGTACX_site2358]	6.58
TGCTTCTTTTAAAAACATGTTTGTATTCATTTTATA [CACACA_negctrl_site1627]	6.99
TTTTGGATGAACAGTACATGCAAAAACAAACTTGTA [TGCATGCA_site16]	6.62
TATATATATATATATTGTACACATACATGTAGTTTT [XGTACX_site4848]	9.29
AAAGTAATATATAATACATGCGTAAATATTTATGTA [TGCATGCA_site254]	6.85
TATATATATATATAGGTGCAATATTGAAAAAATATC [GTGCAC_site9535]	9.87
GACAAATGAAAAGATTGTACATGTATTTGAAGATTA [XGTACX_site6775]	6.65
TCTTTTATATTTTTTTGTACACAAGAATAAAGAAAA [XGTACX_site3394]	6.73
TACACAAAAATTTATACACACACATATATAATATAT [CACACA_site7931]	6.8
TGATTATATATAAATGTATGCATGTCTATTATGCTA [TGCATGCA_site543]	6.45

Sequence	gcPBM binding intensity (ln)
ACATATAAATGATATGTACACACATTTATATATATA [CACACA_site9152]	7.4
ATTTCTCTATCGTAATGTACAAAAAAAAGGAAAAAA [XGTACX_site1323]	6.24
TTTTTAACGTATAAGGTGCACTGTATATGGTACTCA	9.91
TCTTCTTTAAAAGAGGTGCACTATATAATGTGATTA [GTGCAC_site9431]	9
TAATTATACTTATTTTGTACGCAATATTTAAAATAA [XGTACX_site8516]	6.41
ATGTTGAGTATATATACACACATACAGATATATATA [CACACA_site4967]	6.95
TCCACACAATTTATAACATGCAAAAAGGCAATAATA [TGCATGCA_site773]	6.54
TAGGTATATAAATAATGTACATATAAACTATATAGA [XGTACX_site2597]	6.95
ATTATTTTATTTATTGGTACGTAATTGTAGATTTCT [XGTACX_site3697]	6.68
TGGAGATAAAATAAAACACACACATATATATATATA [CACACA_site8683]	9.16
ATACATTCTTATTACTGTACAGGGTTAATTATTTGT [XGTACX_site948]	6.81
GCAAAAACAAACGTCACACATACAAAGGCCGTGTAA [CACACA_site6043]	6.14
AATTAGACATAATATACACACATATATTATATATAT [CACACA_site2691]	6.91
TTCAAAAGATATATCGTGCACATATATATGATGAAA	10.2
ATTTTTTTGGAATTCACACACAAAAAAAAAAATAAA [CACACA_site2081]	6.5
AGCAGTCAGCAGGACAGTACACAGTAGCCAGTAACT [XGTACX_site1999]	5.7
CAAAATATATTGAATTGTACATAAAAATAAAAATTA [XGTACX_site4193]	6.5
TTTATTTTATCATTTGCACACGCACGCCCACATAAA [CACACA_site353]	10.6
TTCGCCCTAAATAGAGTGCATTATATATATTAATAT	8.71
TTCCAACCAATACAAACATGCATTTGAAAAAATGTA [TGCATGCA_site119]	6.21
TTTTTAGGAAAGGCGGCACACATTTATATATTTATT [CACACA_site3672]	6.15

Source: the supplement of paper PMC11417369
